# Data: PubChem BioAssay AID485344 (National Center for Advancing Translational Sciences (NCATS), 2010)
# Hit rate of the full screen: of about 340,000 compounds, about 6,900 (2%) were called active. Cut-off read from the data, not from the text of the source: active = inhibition above about 30%; inactive = below that, where a call was filed. The entries are a selection whose mix differs from that of the whole data set. Entries without a call were filed so in the source.
# Target: D(2) dopamine receptor (Homo sapiens) (UniProt P14416)
# Sequence of UniProt P14416 (P14416 whole entry, looked up): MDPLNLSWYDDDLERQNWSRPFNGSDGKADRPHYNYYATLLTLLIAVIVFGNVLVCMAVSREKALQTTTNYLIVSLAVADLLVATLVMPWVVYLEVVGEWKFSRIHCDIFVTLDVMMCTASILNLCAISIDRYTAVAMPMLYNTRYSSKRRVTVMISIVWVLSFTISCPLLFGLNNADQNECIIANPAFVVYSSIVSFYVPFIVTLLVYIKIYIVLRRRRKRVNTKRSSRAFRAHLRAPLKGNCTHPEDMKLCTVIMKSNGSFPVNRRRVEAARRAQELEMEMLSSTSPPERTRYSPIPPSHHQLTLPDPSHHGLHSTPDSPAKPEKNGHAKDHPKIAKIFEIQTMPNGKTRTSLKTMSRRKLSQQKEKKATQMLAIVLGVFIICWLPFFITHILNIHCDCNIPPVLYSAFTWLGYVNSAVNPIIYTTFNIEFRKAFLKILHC
# Assay: HTS Assay for Allosteric Antagonists of the Human D2 Dopamine Receptor: Primary Screen for Antagonists; note: 0% is about no effect
# Settings: HEK293 TREx D2 cells, calcium flux, dopamine EC80; at 10 µM; stronger effect = higher value
# How it was run: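 Inhibition of EC80 dopamine-driven calcium flux, recorded kinetically, defines activity here; cells are a tetracycline-induced HEK293 T-REx line expressing force-coupled D2.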
row,Compound,inhibition
1,Cn1c(CN2CCCC2)nc2cc(NS(=O)(=O)c3ccc(Cl)cc3)ccc21,active: 68.6%
2,COc1cccc(-n2c(SCC(=O)N3CCc4ccccc43)nc3c([nH]c4ccccc43)c2=O)c1,5.53%
3,COc1cc(NC(=O)CSc2nc(-c3cccs3)cc(C(F)(F)F)n2)cc(OC)c1OC,9.99%
4,O=C(Nc1ccc(F)cc1F)c1cccc2c1C(=O)N(C1CCCCC1)C2,18.5%
5,Cc1cccc(CSc2nc3c(c(=O)[nH]2)CCC3)c1,-7.76%
6,Cc1ccc(CNC(=O)c2ccc(CS(=O)(=O)Cc3ccc(F)cc3)o2)cc1,-24%
7,CCCCc1nn2c(=O)cc(COC(=O)c3cccc(NC(=O)c4cccc(Cl)c4)c3)nc2s1,14.8%
8,COc1ccc(CCCc2nnc(SCC(=O)Nc3cccc(C)c3)o2)cc1C,-2.53%
9,CNC(=S)N1N=C(c2ccc(OC)cc2)CC1c1ccccc1Cl (stereo unspecified),active: 33.5%
10,Cc1cccc(N2CCN(S(=O)(=O)c3cn(C)c(C)n3)CC2)c1C,3.26%
11,O=C(NCC1COc2ccccc2O1)c1ccc(Cl)c(S(=O)(=O)N2CCOCC2)c1 (stereo unspecified),active: 30.6%
12,CCOc1ccccc1C(=O)Oc1c(S(=O)(=O)c2ccc(C)cc2)c(C)nn1-c1ccccc1,-4.38%
13,CCCCN(C)CCCNC(=O)Cn1ncc2c3ccccc3n(Cc3cccc(Cl)c3)c2c1=O,1.24%
14,COc1ccc(NCc2cc3cc4c(cc3n(CC(=O)Nc3cccc(F)c3)c2=O)OCO4)cc1,3.14%
15,O=C(Cn1c(=O)n(-c2ccccc2)c(=O)c2ccc(C(=O)NCc3ccc4c(c3)OCO4)cc21)Nc1ccc(F)cc1,3.06%
16,Clc1ccccc1N1CCN(Cc2nnc(-c3ccccc3)o2)CC1,13.6%
17,CCc1cccc(NC(=O)Cn2c(=O)n(-c3ccccc3C)c(=O)c3c2c2cc(C)ccc2n3C)c1,-9.25%
18,COc1cc(OC)c(NC(=O)Cn2c(=O)c(C(F)(F)F)nc3ccccc32)cc1Cl,1.05%
19,Cc1ccc(Cl)cc1-n1c(CCC(=O)O)ccc1-c1cccs1,0.0749%
20,Cc1ccc(-n2nc(C(=O)N3CCN(c4ccc(F)cc4)CC3)c(=O)n(C)c2=O)cc1,21.8%
21,OC(COc1cccc2ccccc12)CN1CCN(c2ccccn2)CC1 (stereo unspecified),active: 75.1%
22,COc1ccc2nc(NC(=O)c3nc(S(=O)(=O)Cc4ccccc4F)ncc3Cl)sc2c1,-2.59%
23,Cn1cnc(S(=O)(=O)N2CCC(C(=O)Nc3ccc(F)cc3F)CC2)c1,-21.5%
24,CCOCCc1nnc(NC(=O)C(=O)c2cc(C)n(-c3cccc(C)c3)c2C)s1,16.2%
25,Cc1ccc(-c2noc(CNC(=O)COc3cc(C)c(Br)c(C)c3)n2)cc1,-19.7%
26,CCN(CC)C(=O)C1=C(C)NC(=S)NC1c1cccs1 (stereo unspecified),active: 30.7%
